Assay results taken from publication PMC5007513, “Discovery of new diketopiperazines inhibiting Burkholderia cenocepacia quorum sensing in vitro and in vivo” (Scientific Reports, 2016).
Values joined by “and” are separate entries in the source; they are usually repeats but may differ in a detail not shown here. Equal values may be shown once. Read-outs that look alike come from different tables or passages of the source.

Legend:
[1] = system: B. cenocepacia J2315; assay: MIC in planktonic cells, 2-fold microdilution with resazurin; conditions: for bactericidal or bacteriostatic activity: 1 to 128 μg/ml, planktonic cells; for MIC: Burkholderia cenocepacia, J2315, 48 h, read-out: MIC against B. cenocepacia
[2] = system: B. cenocepacia J2315 biofilms; assay: Biofilm assay (confocal microscopy)
[3] = system: B. cenocepacia J2315; conditions: for C. elegans survival: infected with B. cenocepacia J2315; for protection of C. elegans against infection: infection with B. cenocepacia J2315
[4] = 1 μM, versus untreated control biofilm
[5] = 10 μM, 25 μM and 100 μM, 24 h biofilm

For CC(C)[C@H]1NC(=O)C(c2cc(OCc3ccccc3)ccc2OCc2ccccc2)NC1=O (stereo partly shown) [6c], which “bactericidal or bacteriostatic activity” value [1] is on record?
Its value is “did not show any bactericidal or bacteriostatic activity”.

And the MIC [1]?
Its MIC is > 128 µg/mL.

For O=C1C=CC(=O)C(C2NC(=O)C(Cc3ccccc3)NC2=O)=C1 (stereo not shown) [8b], which “bactericidal or bacteriostatic activity” value [1] is on record?
Its value is “did not show any bactericidal or bacteriostatic activity”.

And the MIC [1]?
Its MIC is > 128 µg/mL.

And the biofilm morphology [2, 4]?
Its biofilm morphology is “minor differences”.

What about the biofilm morphology [2, 5] of the same molecule?
Its biofilm morphology is “less structured, contained fewer cells and were unable to colonize the entire surface of the well”.

What about the C. elegans survival ([3]; 1 μM, 24 h) of the same molecule?
The C. elegans survival was 84 ± 2 %.

What about the C. elegans survival ([3]; 1 μM, 48 h) of the same molecule?
Its C. elegans survival is 50 ± 6 %.

What about the C. elegans survival ([3]; 5 μM, 24 h) of the same molecule?
Its C. elegans survival is 89 ± 4 %.

And the C. elegans survival ([3]; 5 μM, 48 h)?
The C. elegans survival was 55 ± 9 %.

And the C. elegans survival ([3]; 10 μM, 24 h)?
The C. elegans survival was 93 ± 7 %.

What about the C. elegans survival ([3]; 10 μM, 48 h) of the same molecule?
The C. elegans survival was 70 ± 7 %.

What about the C. elegans survival ([3]; 25 μM, 24 h) of the same molecule?
The C. elegans survival was 91% and 91 ± 5 %.

What about the C. elegans survival ([3]; 25 μM, 48 h) of the same molecule?
The C. elegans survival was 75 ± 3 %.

What about the “protection of C. elegans against infection” value [3] of the same molecule?
Its value is “significantly protected”.

Which results are given for O=C1CNC(=O)C(c2cc(O)ccc2O)N1 (stereo not shown) [7a]?
bactericidal or bacteriostatic activity [1]: did not show any bactericidal or bacteriostatic activity; MIC [1]: > 128 µg/mL

Which results are given for CC(C)[C@H]1NC(=O)C(c2cc(O)ccc2O)NC1=O (stereo partly shown) [7c]?
bactericidal or bacteriostatic activity [1]: did not show any bactericidal or bacteriostatic activity; MIC [1]: > 128 µg/mL

Which results are given for O=C1CNC(=O)C(c2cc(OCc3ccccc3)ccc2OCc2ccccc2)N1 (stereo not shown) [6a]?
bactericidal or bacteriostatic activity [1]: did not show any bactericidal or bacteriostatic activity; MIC [1]: > 128 µg/mL; biofilm morphology [2, 4]: minor differences; biofilm morphology [2, 5]: less structured, contained fewer cells and were unable to colonize the entire surface of the well; C. elegans survival ([3]; 1 μM, 24 h): 73 ± 10 %; C. elegans survival ([3]; 1 μM, 48 h): 56 ± 11 %; C. elegans survival ([3]; 5 μM, 24 h): 86 ± 6 %; C. elegans survival ([3]; 5 μM, 48 h): 66 ± 5 %; C. elegans survival ([3]; 10 μM, 24 h): 88 ± 17 %; C. elegans survival ([3]; 10 μM, 48 h): 74 ± 11 %; C. elegans survival ([3]; 25 μM, 24 h): 91% and 91 ± 9 %; C. elegans survival ([3]; 25 μM, 48 h): 82 ± 5 %; protection of C. elegans against infection [3]: significantly protected

With CC(=O)Oc1ccc(OC(C)=O)c(C2C(=O)N(C(C)=O)CC(=O)N2C(C)=O)c1 (stereo not shown) [compound 9] as the molecule, how does the “bactericidal or bacteriostatic activity” value [1] read?
The value was “did not show any bactericidal or bacteriostatic activity”.

For CC(C)C1NC(=O)C(C2=CC(=O)C=CC2=O)NC1=O (stereo not shown) [8c], which “bactericidal or bacteriostatic activity” value [1] is on record?
Its value is “did not show any bactericidal or bacteriostatic activity”.

Which “bactericidal or bacteriostatic activity” value [1] does the source give for O=C1N[C@H](Cc2ccccc2)C(=O)NC1c1cc(O)ccc1O (stereo partly shown) [7b] here?
The value was “did not show any bactericidal or bacteriostatic activity”.

What about the MIC [1] of the same molecule?
Its MIC is > 128 µg/mL.

How did the “bactericidal or bacteriostatic activity” value [1] turn out when O=C1N[C@H](Cc2ccccc2)C(=O)NC1c1cc(OCc2ccccc2)ccc1OCc1ccccc1 (stereo partly shown) [6b] was run?
Its value is “did not show any bactericidal or bacteriostatic activity”.

And the MIC [1]?
Its MIC is > 128 µg/mL.

How did the “bactericidal or bacteriostatic activity” value [1] turn out when O=C1C=CC(=O)C(C2NC(=O)CNC2=O)=C1 (stereo not shown) [8a] was run?
The value was “did not show any bactericidal or bacteriostatic activity”.

What about the MIC [1] of the same molecule?
The MIC was > 128 µg/mL.
